In the supplement of paper PMC5499739:
Whole data set: some 16,000 sequences, median “Z-score” near -0.37, cut for the highest 2% near 3.2. Some of the results follow.

Each sequence was assayed on RBM10 RRM1-ZnF (GST-tagged construct) (assay: RNAcompete 7-mer binding Z-score; higher = stronger binding preference).
Method in brief: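 A one-sided Z-score for enrichment, taken across the probes containing each heptamer motif, was assigned to every such motif. The RNA came from a designed pool of 241 399 sequences up to 41 nt (1.5 nmol), bound by 20 pmol of GST-tagged RBM10 constructs in 1 ml Hepes pH 7.8 buffer with glutathione Sepharose beads for 30 min at 4°C. Four 2-min washes at 4°C preceded identification of bound RNA by microarray hybridisation.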

Sequence	RNAcompete 7-mer binding Z-score
GCAAGUA	-0.103
CCUCUCG	-0.633
AGAGAUA	0.384
ACUCAUG	-0.655
GAAGAUC	0.0235
CCGGCAG	-0.184
AUAACUA	-0.48
GUCGUAA	-0.214
CAACAGC	-0.467
AAUGCCA	-0.457
UACGUUU	-0.763
UGGAUAG	2.48
GAAGACG	1.09
AAUGACG	0.166
GCCUUUG	-0.727
CCCUGGC	-0.113
ACUGGCU	-0.292
GAGAUCA	0.0138
AACCCCC	-0.171
GGGCGAC	1.81
UCGGCCU	-0.678
GCGGGAG	2.86
UCGACCG	-0.545
CAGCAGG	0.794
UGUUGAC	-0.314

Sequence	RNAcompete 7-mer binding Z-score
CUACAUC	-0.811
AUGGUUA	2.05
CUUUGCC	-0.98
CGGGGCA	2.4
AUGCGUU	-0.405
AGACCCU	-1.07
GAUUGGA	2.24
CGUGUGA	0.0365
CAUCAGU	-0.357
GUGAACG	1.38
AUUUGUU	-0.568
ACAGAAG	0.595
CCGCGUA	-0.568
AUGUGGU	1.52
GACACUC	-0.623
CUGCGUG	-0.337
CCUCAUU	-0.915
GAGACGA	0.517
CCUCUUC	-0.785
UACUGCC	-0.659
AGAGACU	-0.545
UUUAUAC	-0.756
UUUCCGC	-0.824
GUUGUAU	-0.0317
AUAUGUU	-0.405

Sequence	RNAcompete 7-mer binding Z-score
UUCACUC	-0.707
CCUUAUC	-0.899
UAAGUAU	-0.389
AUUCGAU	-0.581
UCUGCAU	-0.893
GCCUAUG	-0.37
AACCGCA	-0.74
GACAUGU	-0.0642
GCGGCAC	0.413
GCACCUG	-0.353
GUACAUA	-0.301
UGUGAAC	0.257
GGCACAA	0.0723
GGGCCAC	0.144
GCUUAAA	-0.597
CAACGCU	-0.636
GCUGCGA	-0.0934
AUGUUAA	-0.448
CGAAUCU	-0.88
GACAUUU	-0.759
GGUCACU	0.0398
AGUUCAA	-0.334
GCACCCA	-0.49
ACAUAUG	-0.139
UCCCUGU	-0.763

Sequence	RNAcompete 7-mer binding Z-score
CCAUCUU	-0.912
GGAAUCU	-0.149
AAUUAGG	1.37
ACGUUAC	-0.324
UAUUUAA	-0.607
CGGUACG	0.508
UUGCACU	-0.639
CUGAGAA	-0.412
CUUCUAC	-0.841
GAGGAAU	1.58
UGGACCA	-0.0512
CUAAAGU	-0.539
GGCCGGA	0.693
GGAGGCA	2.31
GGGUCUC	0.969
AAUGGAC	2.03
UAGGUCA	0.335
GGUCGCA	0.358
AGACUCU	-0.941
CUCGGUC	-0.558
GUUACGA	0.0983
ACGUCCU	-0.779
AUAAAGC	-0.48
UGGUUAU	0.735
CACGAGC	-0.106

Sequence	RNAcompete 7-mer binding Z-score
CGACCGA	-0.519
AAAGUAG	0.491
CCGGUGC	-0.236
CAAUAGC	-0.451
UUCGCCA	-0.591
CAAUCAC	-0.646
GCCGUCG	-0.0739
ACUUCGC	-0.782
CAACCAA	-0.542
UGCACCA	-0.545
CGCGCCA	-0.337
CUGUCUG	-0.766
GUUUUAC	-0.591
CGGUUAG	0.881
AGAGCCG	-0.714
CCUAGGC	-0.558
GUUCUUA	-0.785
AUCAGAC	-0.337
CACAGCG	-0.262
UGGCUUA	-0.337
CGGUUGU	0.313
GAGACCC	-0.435
CACGAUG	-0.178
CCCGCAU	-0.516
UCAUAAU	-0.876

Sequence	RNAcompete 7-mer binding Z-score
CGCCGGG	0.134
UCUAUAG	-0.467
UCGCUUU	-0.873
CUCCCAU	-0.701
AGCUUAG	-0.288
GACGUGU	0.293
UCAGGAA	0.738
UCGGCCA	-0.558
CGAGCAU	-0.337
UGGAACG	2.13
AAAAUCG	-0.35
CUGCUAA	-0.789
AAAUUAC	-0.665
AUUUAAA	-0.633
GGUUGCC	0.55
CCCGACU	-0.6
ACCAAAU	-0.552
UGGAUGU	1.68
UGGUUGU	1.67
UUAAACA	-0.529
GGGCUAU	0.849
AAUUCUC	-0.594
CCAGAGA	-0.0447
ACUUAAU	-0.798
GCAGCCU	-0.529

Sequence	RNAcompete 7-mer binding Z-score
AUAUUUU	-0.932
GCCCUGC	-0.513
GUCAGGA	1.01
AUGACAG	0.413
ACUAGAG	-0.0382
CUAUAAC	-0.811
ACGGAGG	2.5
GGAGCCA	0.475
AUGGACA	1.95
GCCAUUC	-0.912
CUCAGAG	-0.23
GCAGCUG	-0.0512
CCUGGAC	-0.347
AUCUCAU	-0.841
GUGUUGC	0.264
AUGGCGU	0.462
GUCGGAU	0.524
CUGGUAA	0.186
UUUUAUA	-0.707
ACCAGCA	-0.591
CUCCAGG	-0.11
GGCAGUU	0.082
GGGGGUU	3.67
AGCGGUA	1.3
AAUAAAU	-0.402

Sequence	RNAcompete 7-mer binding Z-score
CUUUCUG	-0.834
GGGGGCA	2.92
UGCAACU	-0.422
UGACUCU	-0.568
GGACUAA	0.371
GGUACCG	0.452
GACUCCC	-0.574
UGGUACC	0.407
AUAAGAC	-0.207
AGCCUUA	-0.789
GGAUCCU	-0.266
GUGAUGG	2.71
CUCCAUG	-0.451
CUUCAGG	-0.236
UAUAGUU	-0.223
CUCCUAC	-0.711
AAAUUCU	-0.633
UGCGAGA	0.121
UCGCCAA	-0.629
UUCGGCC	-0.789
AACUUCC	-0.919
GCGAACU	-0.48
GAGAGCG	1.28
UGUAGCU	-0.301
UAUUGAC	-0.737

Sequence	RNAcompete 7-mer binding Z-score
CUGCCGU	-0.659
UAGGAAC	1.32
UGGCAUU	-0.223
UCCCACC	-0.249
CGAAACU	-0.597
UCUCAAG	-0.532
UUGGAGU	1.4
CUCUUUC	-0.857
ACGCAAU	-0.474
CUUACGG	-0.178
UGGUAUG	1.71
AUCUCAG	-0.435
CGGAAAA	0.654
ACGAUGU	-0.035
CGCCUCC	-0.545
GGAAAGA	2.41
UGCUAAC	-0.584
UUAGACC	-0.649
AAGUAGC	-0.0512
UCUAUAA	-0.681
GCGGUGA	1.2
AUGAGCG	0.842
AUUACGU	-0.415
ACUUAAA	-0.636
GCAGAUC	-0.129

Sequence	RNAcompete 7-mer binding Z-score
AUCGAAA	-0.37
AUAAUGC	-0.623
GUUCCUC	-0.698
GCGUGAC	-0.0999
CCAUCGA	-0.597
AGAAAAU	-0.0447
UAUCAUG	-0.357
GAGACAG	0.901
CAUUCAU	-0.756
UGUUCUA	-0.756
GUGUGUA	0.81
UGGCUUU	-0.522
AGGUGUA	1.74
GUGGACC	0.82
GACAGUC	-0.574
AGGGCGC	1.01
CUAACCG	-0.837
UUAUGAC	-0.383
AAGCACU	-0.47
AGAAUGU	0.235
AGUGUAG	1.34
GCGGACG	1.28
AUUUUCG	-0.87
UACGCGA	-0.126
UGCAACC	-0.62

Sequence	RNAcompete 7-mer binding Z-score
AAUGAGG	1.71
CCCUAGG	0.365
CACUCCA	-0.753
CAAUAUA	-0.617
UAUCAUC	-0.675
GGUGCAC	0.813
GCUGUGU	-0.347
AUUUGAU	-0.363
AGCCCGC	-0.181
UACCGGU	-0.285
UACGUGA	-0.188
AAGUUGA	0.634
GCAGCAC	-0.415
AACCCCA	-0.483
GGGGAAC	2.42
UCAGAUC	-0.604
ACGCAGC	-0.652
ACUCGAU	-0.688
GAAUGGG	4.76
GCCCCAG	-0.149
GCUCAAC	-0.6
GUGCUUA	-0.318
UGAUCAU	-0.574
UAACAUG	-0.175
AUACGCC	-0.678

Sequence	RNAcompete 7-mer binding Z-score
CAUCGUA	-0.535
GGAAUUA	1.04
AUCUGCC	-0.889
AAUGAAU	-0.201
GGUACCU	0.0755
UAAGAGC	-0.21
ACGGCUA	-0.357
ACUAGCG	-0.269
AUCGGCA	-0.181
GGCGAGC	1.64
CCGUGAC	-0.409
AAGGGGG	4.31
AGUCAGU	0.0105
GGGCCUG	0.436
CAAAACG	-0.119
UGCCGUU	-0.685
GUAGUGG	2.22
CAUUCCG	-0.837
UAUCUAC	-0.506
AUUUGGU	0.634
AAUUCCU	-0.785
UGGUGUA	1.52
AACCAUC	-0.763
UUGUGGG	2.83
ACAAUUA	-0.428

Sequence	RNAcompete 7-mer binding Z-score
UUCGCUU	-0.883
GCCCUCU	-0.724
CCACAUA	-0.805
CGCUUUG	-0.701
AUAGGUC	0.199
UUUCCAC	-0.73
CAGUCCG	-0.75
AGGAUUU	0.118
AAACACC	-0.6
UUACGUU	-0.766
ACGGAAG	1.69
GGUGCAG	2.42
ACAGUUA	-0.298
AGUCGGG	1.43
ACUGACU	-0.457
GGUGUAG	2.85
UUGGGUU	2.66
ACAGCUC	-0.753
AGUCUUU	-0.798
CAAUAAA	-0.649
CUUACAU	-0.805
AGCCCCU	-0.483
UCAAGGC	-0.0772
ACUUGUU	-0.698
UCCUGGC	-0.594

Sequence	RNAcompete 7-mer binding Z-score
GAAGUCU	-0.503
CAGAGGG	2.22
CAGAUGU	-0.0609
AUAACCG	-0.639
CUUUUGG	-0.311
CGGUGGA	2.43
ACGGGCA	1.68
GGCCGAA	-0.223
UCUAUUU	-0.854
GUCGAUU	-0.269
AACACGG	0.274
CGUGUAG	0.322
CCUUUGU	-0.948
UCCGGUG	-0.0804
GCGCCCC	-0.0934
GACUUAC	-0.727
CGAUUUA	-0.574
AUGUAUC	-0.444
CUGCCAU	-0.847
GGCGUAC	0.426
CACCUGA	-0.698
UAGAGUA	0.677
UGUGAUU	-0.376
ACCCGUG	-0.438
AUGGUCU	-0.165

Sequence	RNAcompete 7-mer binding Z-score
UCCUCUA	-0.756
GGGGGGU	3.81
UGCUGGC	-0.0674
CUGGCUC	-0.5
GAUCAGU	-0.0414
GGCCUCU	-0.694
GUUCAGA	-0.246
ACUCCCA	-0.821
AAUCGGC	-0.331
AAUUCAC	-0.737
ACUUACC	-0.733
UAAUCCC	-0.841
CGGAUUU	-0.282
AUCGUAA	-0.571
GUUUCGC	-0.35
CAUCCAG	-0.694
CCGUCCU	-0.828
